Measurements reported in the supplement of paper PMC6657886.
MIC of clinical N. gonorrhoeae isolates (2015-2017) by agar dilution on GC agar with 1% IsoVitaleX (ranges not stated); higher = less susceptible. No active / inactive call per row; the paper counts benzylpenicillin above 1 and ceftriaxone above 0.125 mg/L as resistant (EUCAST). The method is stated for benzylpenicillin and ceftriaxone and assumed for the other drugs. '<=' is inferred from pile-ups at the end values. Isolates are numbered anew.

Columns and labels:
Test in all cases: Agar dilution on enriched GC agar; resistance determinants by microarray.
benzylpenicillin = compound: CC1(C)S[C@@H]2[C@H](NC(=O)Cc3ccccc3)C(=O)N2[C@H]1C(=O)O [benzylpenicillin]
azithromycin = compound: CC[C@H]1OC(=O)[C@H](C)[C@@H](O[C@H]2C[C@@](C)(OC)[C@@H](O)[C@H](C)O2)[C@H](C)[C@@H](O[C@@H]2O[C@H](C)C[C@H](N(C)C)[C@H]2O)[C@](C)(O)C[C@@H](C)CN(C)[C@H](C)[C@@H](O)[C@]1(C)O [azithromycin]
tetracycline = compound: CN(C)[C@@H]1C(O)=C(C(N)=O)C(=O)[C@@]2(O)C(O)=C3C(=O)c4c(O)cccc4[C@@](C)(O)[C@H]3C[C@@H]12 [tetracycline]
spectinomycin = compound: CN[C@@H]1[C@H](O)[C@H](NC)[C@H]2O[C@@]3(O)C(=O)C[C@@H](C)O[C@H]3O[C@@H]2[C@H]1O [spectinomycin]
ceftriaxone = compound: CO/N=C(\C(=O)N[C@@H]1C(=O)N2C(C(=O)O)=C(CSc3nc(=O)c(O)nn3C)CS[C@H]12)c1csc(N)n1 [ceftriaxone]

Row | Test System | MIC (benzylpenicillin) [µg/mL] | MIC (azithromycin) [µg/mL] | MIC (tetracycline) [µg/mL] | MIC (spectinomycin) [µg/mL] | MIC (ceftriaxone) [µg/mL]
1 | Neisseria gonorrhoeae isolate 512 (blaTEM plasmid: no, gyrA: Phe91, Gly95, mtrR promoter: -35delA, parC: Arg87, Glu91, penA: ins345Asp, ponA: Pro421, porB: wild type, rpsJ: Met57, tetM plasmid: no) | ≤ 0.015 | 0.12 | 0.25 | 8 | ≤ 0.002
2 | Neisseria gonorrhoeae isolate 43 (blaTEM plasmid: no, gyrA: wild type, mtrR promoter: wild type, parC: wild type, penA: ins345Asp, ponA: wild type, porB: wild type, rpsJ: wild type, tetM plasmid: no) | 0.03 | 0.06 | 1 | 16 | 0.004
3 | Neisseria gonorrhoeae isolate 73 (blaTEM plasmid: no, gyrA: wild type, mtrR promoter: wild type, parC: wild type, penA: ins345Asp, ponA: wild type, porB: wild type, rpsJ: wild type, tetM plasmid: no) | 0.06 | 0.06 | 0.25 | 16 | ≤ 0.002
4 | Neisseria gonorrhoeae isolate 397 (blaTEM plasmid: no, gyrA: Phe91, Gly95, mtrR promoter: wild type, parC: Arg87, Glu91, penA: ins345Asp, ponA: Pro421, porB: wild type, rpsJ: Met57, tetM plasmid: no) | 0.25 | 0.015 | 0.5 | 32 | 0.004
5 | Neisseria gonorrhoeae isolate 292 (blaTEM plasmid: no, gyrA: wild type, mtrR promoter: wild type, parC: wild type, penA: ins345Asp, ponA: wild type, porB: wild type, rpsJ: wild type, tetM plasmid: no) | 0.12 | 0.25 | 0.25 | 32 | 0.008
6 | Neisseria gonorrhoeae isolate 380 (blaTEM plasmid: no, gyrA: Phe91, Gly95, mtrR promoter: -35delA, parC: Arg87, Glu91, penA: ins345Asp, ponA: Pro421, porB: Lys 120, Gly121, rpsJ: Met57, tetM plasmid: no) | 0.5 | 1 | 2 | 16 | 0.015
7 | Neisseria gonorrhoeae isolate 82 (blaTEM plasmid: no, gyrA: wild type, mtrR promoter: wild type, parC: wild type, penA: ins345Asp, ponA: wild type, porB: wild type, rpsJ: wild type, tetM plasmid: no) | 0.12 | 0.015 | 0.06 | 32 | 0.001
8 | Neisseria gonorrhoeae isolate 435 (blaTEM plasmid: no, gyrA: wild type, mtrR promoter: wild type, parC: wild type, penA: ins345Asp, ponA: wild type, porB: wild type, rpsJ: wild type, tetM plasmid: no) | 0.25 | 0.03 | 0.25 | 32 | ≤ 0.002
9 | Neisseria gonorrhoeae isolate 359 (blaTEM plasmid: no, gyrA: wild type, mtrR promoter: wild type, parC: wild type, penA: ins345Asp, ponA: Pro421, porB: wild type, rpsJ: wild type, tetM plasmid: no) | 0.5 | 0.25 | 1 | 16 | 0.015
10 | Neisseria gonorrhoeae isolate 226 (blaTEM plasmid: no, gyrA: Thr91, Gly95, mtrR promoter: -35delA, parC: wild type, penA: wild type, ponA: wild type, porB: wild type, rpsJ: wild type, tetM plasmid: no) | 0.25 | 0.06 | 0.12 | 16 | ≤ 0.002
11 | Neisseria gonorrhoeae isolate 23 (blaTEM plasmid: no, gyrA: Thr91, Gly95, mtrR promoter: wild type, parC: wild type, penA: ins345Asp, ponA: wild type, porB: wild type, rpsJ: wild type, tetM plasmid: no) | ≤ 0.015 | 0.06 | 0.5 | 32 | ≤ 0.002
12 | Neisseria gonorrhoeae isolate 14 (blaTEM plasmid: no, gyrA: wild type, mtrR promoter: wild type, parC: wild type, penA: ins345Asp, ponA: wild type, porB: wild type, rpsJ: wild type, tetM plasmid: no) | 0.06 | 0.03 | 0.25 | 16 | 0.015
13 | Neisseria gonorrhoeae isolate 424 (blaTEM plasmid: no, gyrA: wild type, mtrR promoter: wild type, parC: wild type, penA: ins345Asp, ponA: wild type, porB: wild type, rpsJ: Met57, tetM plasmid: no) | 0.25 | 0.03 | 0.5 | 4 | ≤ 0.002
14 | Neisseria gonorrhoeae isolate 374 (blaTEM plasmid: no, gyrA: Ser91, Asn95, mtrR promoter: -35delA, parC: Ser87, Gly 91, penA: ins345Asp, ponA: Pro421, porB: Asn120, Asp121, rpsJ: Met57, tetM plasmid: no) | 0.25 | 0.25 | 1 | 16 | 0.015
15 | Neisseria gonorrhoeae isolate 504 (blaTEM plasmid: no, gyrA: Phe91, Asn95, mtrR promoter: wild type, parC: Arg87, Glu91, penA: ins345Asp, ponA: Pro421, porB: wild type, rpsJ: Met57, tetM plasmid: no) | 0.12 | 0.06 | 0.5 | 16 | 0.004
16 | Neisseria gonorrhoeae isolate 122 (blaTEM plasmid: no, gyrA: wild type, mtrR promoter: wild type, parC: wild type, penA: ins345Asp, ponA: wild type, porB: wild type, rpsJ: wild type, tetM plasmid: no) | 0.12 | 0.015 | 0.25 | 32 | 0.008
17 | Neisseria gonorrhoeae isolate 222 (blaTEM plasmid: no, gyrA: wild type, mtrR promoter: wild type, parC: wild type, penA: ins345Asp, ponA: wild type, porB: wild type, rpsJ: Met57, tetM plasmid: no) | 0.5 | 0.12 | 0.5 | 16 | 0.008
18 | Neisseria gonorrhoeae isolate 316 (blaTEM plasmid: no, gyrA: wild type, mtrR promoter: wild type, parC: wild type, penA: ins345Asp, ponA: wild type, porB: wild type, rpsJ: Met57, tetM plasmid: no) | ≤ 0.015 | 0.25 | 0.25 | 16 | ≤ 0.002
19 | Neisseria gonorrhoeae isolate 418 (blaTEM plasmid: no, gyrA: wild type, mtrR promoter: wild type, parC: Arg87, Glu91, penA: wild type, ponA: wild type, porB: wild type, rpsJ: wild type, tetM plasmid: no) | ≤ 0.015 | 0.03 | 0.06 | 8 | ≤ 0.002
20 | Neisseria gonorrhoeae isolate 501 (blaTEM plasmid: no, gyrA: Thr91, Gly95, mtrR promoter: wild type, parC: wild type, penA: ins345Asp, ponA: wild type, porB: Gly120, Ser121, rpsJ: Met57, tetM plasmid: no) | 0.25 | 0.06 | 0.5 | 16 | ≤ 0.002
21 | Neisseria gonorrhoeae isolate 399 (blaTEM plasmid: no, gyrA: wild type, mtrR promoter: wild type, parC: wild type, penA: ins345Asp, ponA: wild type, porB: wild type, rpsJ: wild type, tetM plasmid: no) | ≤ 0.015 | 0.06 | 0.06 | 8 | ≤ 0.002
22 | Neisseria gonorrhoeae isolate 498 (blaTEM plasmid: no, gyrA: wild type, mtrR promoter: wild type, parC: wild type, penA: ins345Asp, ponA: wild type, porB: wild type, rpsJ: wild type, tetM plasmid: no) | ≤ 0.015 | 0.008 | 0.12 | 32 | 0.004
23 | Neisseria gonorrhoeae isolate 33 (blaTEM plasmid: no, gyrA: wild type, mtrR promoter: wild type, parC: wild type, penA: wild type, ponA: wild type, porB: wild type, rpsJ: wild type, tetM plasmid: no) | ≤ 0.015 | 0.06 | 0.12 | 16 | ≤ 0.002
24 | Neisseria gonorrhoeae isolate 298 (blaTEM plasmid: no, gyrA: Phe91, Asn 95, mtrR promoter: wild type, parC: Arg 87, Glu91, penA: ins345Asp, ponA: Pro421, porB: wild type, rpsJ: Met57, tetM plasmid: no) | 0.25 | 0.06 | 1 | 32 | ≤ 0.002
25 | Neisseria gonorrhoeae isolate 423 (blaTEM plasmid: no, gyrA: Phe91, Gly95, mtrR promoter: -35delA, parC: Arg87, Glu91, penA: ins345Asp, ponA: Pro421, porB: Lys 120, Gly121, rpsJ: Met57, tetM plasmid: no) | 1 | 0.06 | 2 | 32 | 0.06
